The list shows a part of the results. At the low end of the ranking, values are background and their order means little.

The test has as its target T1, GST-Rok-C97-191 (UniProt O34857).
T1 sequence: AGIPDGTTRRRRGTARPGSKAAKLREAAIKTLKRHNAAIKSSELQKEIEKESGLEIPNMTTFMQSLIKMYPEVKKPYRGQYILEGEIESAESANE
Kind of test: protein binding microarray.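 Note: rank score from −0.5 (least bound) to 0.5 (best bound).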 Conditions: Rok is a gene silencer of Bacillus subtilis; high values mean tight binding; most listed sequences are background and not binding sites; double strand, one strand shown.
Consider CGGCGACG, for which the binding signal was -0.208 E-score.

For CACCGGGG, the binding signal is -0.261 E-score.

For CTATTATA, the binding signal is 0.329 E-score.

For CAGATTGG, the binding signal was found to be 0.0458 E-score.

As for AGTCCCGG, the binding signal is -0.13 E-score.

On to CACTAGTG, for which the binding signal was -0.0787 E-score.

As to ACGGGTCG, the binding signal was -0.226 E-score.

The sequence AACCTGGG returned a binding signal of -0.221 E-score.

Consider GTATTCGA, for which the binding signal turned out to be 0.15 E-score.

As for AACCCGTG, the binding signal was -0.252 E-score.

TCATGTCA showed a binding signal of 0.0416 E-score.

In the case of ACACGTTC, the binding signal was found to be 0.0185 E-score.

As to GCTTTTAA, the binding signal is -0.0273 E-score.

Turning to AATGTCGC, the binding signal came to 0.0115 E-score.

Consider GCACACCC, for which the binding signal was -0.244 E-score.

Sequence ATCATGCG had a binding signal of -0.315 E-score.

Consider GAGTTTTA, for which the binding signal is 0.182 E-score.

With GACAGGAA, the binding signal was -0.188 E-score.

AAGTAACA returned a binding signal of 0.177 E-score.

CAGGACAC: the binding signal is -0.247 E-score.

CAGCTTAA yielded a binding signal of -0.0291 E-score.

As for AATGTAAA, the binding signal turned out to be 0.329 E-score.

In the case of ACAGCTGG, the binding signal was -0.00567 E-score.

As to CCTGCCTA, the binding signal is -0.083 E-score.

CGACTGGC had a binding signal of -0.264 E-score.

As for CACGCGCG, the binding signal was -0.176 E-score.

As for ATTGTTTC, the binding signal was determined as 0.13 E-score.

Sequence CCCTACAA returned a binding signal of -0.0562 E-score.

The sequence GGGCAACA registered a binding signal of -0.277 E-score.

For the sequence CGGTCGTC, the binding signal was -0.124 E-score.

With CGTATAAG, the binding signal came out at 0.061 E-score.

In turn, AATGGGCA came in with a binding signal of -0.108 E-score.

The sequence ACGCGCAG came in with a binding signal of -0.205 E-score.

The sequence CATTTAAC came in with a binding signal of 0.0527 E-score.

On to CCCCCATC, for which the binding signal was -0.251 E-score.

ATCAGTCG returned a binding signal of -0.0256 E-score.

For GCTAGGTA, the binding signal turned out to be 0.145 E-score.

Sequence CTCGTCGC had a binding signal of -0.108 E-score.

As to CGGTGAAA, the binding signal is -0.0196 E-score.

Take CGGCTTAA: the binding signal is -0.114 E-score.

Sequence ACCGGCGG had a binding signal of -0.145 E-score.

GCACTTCA returned a binding signal of -0.266 E-score.

In the case of CATACGAC, the binding signal is 0.00215 E-score.

For CTTGTTGA, the binding signal is -0.202 E-score.

Sequence AATCTCCC gave a binding signal of -0.0734 E-score.

In turn, CGCGTCTC showed a binding signal of -0.196 E-score.

Take CTGTGAAC: the binding signal is -0.00443 E-score.

As for CTTTCGGA, the binding signal was -0.0395 E-score.

Sequence CCCTTAAA had a binding signal of -0.0685 E-score.

In turn, CAACGTTC returned a binding signal of -0.0525 E-score.

In the case of CACCTTCA, the binding signal was -0.15 E-score.

In turn, CGCCCGGA came in with a binding signal of -0.118 E-score.

As to CACGATAC, the binding signal was -0.0773 E-score.

AAAGCTGG yielded a binding signal of 0.124 E-score.

In turn, ACGCCTCT returned a binding signal of -0.238 E-score.

ATTGACGA: the binding signal was -0.000157 E-score.

In the case of CATAGGAG, the binding signal amounted to 0.02 E-score.

The sequence CCTTGTCC yielded a binding signal of -0.199 E-score.

As to GACATCAC, the binding signal was -0.254 E-score.

GGAGAACC: the binding signal worked out at 0.0463 E-score.

In turn, ACGAAGCA had a binding signal of -0.0561 E-score.

With AACTCCAA, the binding signal was -0.228 E-score.

TATTAAGA yielded a binding signal of 0.145 E-score.

CCACGGAG: the binding signal is -0.246 E-score.

Sequence AAAATTTC had a binding signal of 0.121 E-score.

Take ATACAAGA: the binding signal is 0.0874 E-score.

On to AAGTGTGA, for which the binding signal worked out at 0.162 E-score.

Consider AACGGCAT, for which the binding signal was -0.151 E-score.

As for CGCAGCGC, the binding signal came to 0.0339 E-score.

As to CTGACGCC, the binding signal was -0.335 E-score.

With CATCGGTC, the binding signal was -0.105 E-score.

Turning to ACGGTACC, the binding signal worked out at 0.0253 E-score.

For the sequence ACTGGACC, the binding signal was -0.229 E-score.

As to CTCCTGTA, the binding signal was -0.0704 E-score.

For the sequence ATGATCCA, the binding signal was found to be 0.0416 E-score.

The sequence GGAAATAA displayed a binding signal of 0.161 E-score.

Consider GGTTGGCA, for which the binding signal was -0.214 E-score.

Regarding AATAATGC, the binding signal came out at 0.295 E-score.

In turn, AACGAACC displayed a binding signal of 0.0441 E-score.

Take ACCTGAGT: the binding signal is -0.185 E-score.

Consider CGCAAGCG, for which the binding signal was -0.193 E-score.

On to GTGTTGTA, for which the binding signal was found to be 0.158 E-score.

CACACTTC gave a binding signal of 0.141 E-score.

Regarding CCGCAGGA, the binding signal is -0.137 E-score.

CATACTGC: the binding signal turned out to be 0.0241 E-score.

AACGGTTC came in with a binding signal of 0.121 E-score.

Take GATTCATA: the binding signal turned out to be 0.23 E-score.

ATTCCTGG displayed a binding signal of -0.212 E-score.

Consider AGCTCATC, for which the binding signal was 0.11 E-score.

In turn, GCTCTGTA displayed a binding signal of -0.0553 E-score.

Take CTACTTGA: the binding signal turned out to be 0.0483 E-score.

On to GGGACTAA, for which the binding signal was 0.0775 E-score.

Sequence TACAGACA had a binding signal of 0.0961 E-score.

Regarding ACCTGTGG, the binding signal is -0.112 E-score.

Consider AGCCTTGA, for which the binding signal is -0.13 E-score.

ACAGAATG gave a binding signal of -0.0496 E-score.

Consider ATGGGCGC, for which the binding signal is -0.157 E-score.

CCATAGTC: the binding signal worked out at 0.0206 E-score.

As for ATCAATAC, the binding signal stood at 0.136 E-score.

Turning to CGCAATCC, the binding signal is -0.208 E-score.

In the case of AGAACCTA, the binding signal was 0.212 E-score.

Take CTTTTCGC: the binding signal was 0.226 E-score.

In turn, CCCAAGCG had a binding signal of -0.224 E-score.

The sequence GTCCGCGA registered a binding signal of 0.0293 E-score.

In turn, TGAGCTAA displayed a binding signal of 0.0565 E-score.

In turn, ATTCGCTG showed a binding signal of 0.0111 E-score.

On to CCCCTTAC, for which the binding signal was -0.322 E-score.

In turn, TGCAGCCA had a binding signal of -0.132 E-score.

For the sequence ATATGTAG, the binding signal turned out to be 0.386 E-score.

For the sequence CCGTCCTC, the binding signal was -0.343 E-score.

On to AAGTGAGT, for which the binding signal is 0.0981 E-score.

As for CGCCCAAC, the binding signal was -0.0627 E-score.

Regarding GCATATAC, the binding signal was determined as 0.18 E-score.

Turning to CAGAGAAC, the binding signal was -0.118 E-score.

Turning to CTGTATCC, the binding signal was -0.0696 E-score.

Take GGGGAACC: the binding signal was -0.322 E-score.

GTGGGTCA: the binding signal was -0.167 E-score.

The sequence AACGAAAG displayed a binding signal of 0.162 E-score.

AAGTTAAT showed a binding signal of 0.195 E-score.

On to GGTAGTCA, for which the binding signal was 0.192 E-score.

Turning to GCCTCGCA, the binding signal was -0.272 E-score.

For AACAAAGT, the binding signal is 0.0493 E-score.

Turning to AGAGCCAT, the binding signal was -0.255 E-score.

Sequence TGGATCCA displayed a binding signal of -0.149 E-score.

Regarding CGGTGGAA, the binding signal is -0.0743 E-score.

Take GACTTATC: the binding signal turned out to be 0.0621 E-score.

For AGGCGAAC, the binding signal is -0.0431 E-score.

Sequence AAGCGTAT displayed a binding signal of -0.00415 E-score.

The sequence GATTATAA returned a binding signal of 0.251 E-score.

CACCCCGG returned a binding signal of -0.292 E-score.

Turning to CCAAGGGA, the binding signal was -0.167 E-score.

Sequence CCGTCCCG had a binding signal of -0.191 E-score.

For the sequence AATTGTCC, the binding signal worked out at 0.0642 E-score.

Regarding ACGGTGAT, the binding signal was -0.0268 E-score.

On to GGGCAGCA, for which the binding signal was -0.117 E-score.

On to TCCTAAGA, for which the binding signal is -0.0657 E-score.

AGGTCAAG: the binding signal was -0.0455 E-score.

Sequence GAAGATGA came in with a binding signal of -0.0218 E-score.

Take GCCCGCCA: the binding signal is -0.227 E-score.

GTCGGGGA returned a binding signal of -0.195 E-score.

AGCGTAAG displayed a binding signal of -0.0539 E-score.

Consider CAAAGAGC, for which the binding signal is -0.382 E-score.

With ATGCCATG, the binding signal is -0.0764 E-score.

For AGAAACCA, the binding signal is 0.183 E-score.

With CACCCCTC, the binding signal was -0.325 E-score.

Consider CGAACGGA, for which the binding signal was -0.0748 E-score.

CGGATTTA came in with a binding signal of 0.113 E-score.

CGCTCACC: the binding signal turned out to be 0.0129 E-score.

AGTTTCAC gave a binding signal of 0.15 E-score.

On to CATGACCG, for which the binding signal was -0.124 E-score.

In turn, CACCCCAG came in with a binding signal of -0.267 E-score.

The sequence TATTAAAA yielded a binding signal of 0.189 E-score.

The sequence GTCTAACA came in with a binding signal of -0.0252 E-score.

As to GAGGGCTA, the binding signal was -0.148 E-score.

Consider ACAACGTA, for which the binding signal was 0.164 E-score.

CGTTGCAC: the binding signal was -0.135 E-score.

AGACTCAA had a binding signal of -0.0392 E-score.

CGTGGCCC displayed a binding signal of -0.144 E-score.

Regarding CGGAGAAC, the binding signal came out at 0.0827 E-score.

Consider ACGTGATA, for which the binding signal was determined as 0.18 E-score.

The sequence ATATTGTG displayed a binding signal of 0.214 E-score.

CACCGTAG yielded a binding signal of -0.134 E-score.

Sequence GACAGTGA returned a binding signal of -0.0283 E-score.

Turning to CGCAATGC, the binding signal worked out at 0.00515 E-score.

Take AGTAACGA: the binding signal was 0.158 E-score.

With GCTTCTAA, the binding signal was -0.0223 E-score.

The sequence GGTCAAAA yielded a binding signal of 0.0262 E-score.

As to CAGGGCGC, the binding signal is -0.346 E-score.

CGTTCGAA displayed a binding signal of 0.00753 E-score.

The sequence ATTCGGGA displayed a binding signal of -0.127 E-score.

Take CCGCATCA: the binding signal is -0.175 E-score.

CCCGGGAC displayed a binding signal of -0.264 E-score.

(Values after article PMC6212790.)
